# Laboratory results: the antibiotic and cytotoxicity screens of Wong et al. (2023)
# This is one part of the list.
# Assays:
# HSkMC = human skeletal muscle cells; assay: cytotoxicity call (relative viability < 0.9); conditions: 10 µM
# HepG2 = assay: cytotoxicity call (relative viability < 0.9); conditions: 10 µM
# S. aureus RN4220 = assay: growth inhibition call (relative growth <= 0.2); conditions: 50 µM
Structure (SMILES),cytotoxicity call (HSkMC),cytotoxicity call (HepG2),growth inhibition call (S. aureus RN4220)
Cc1ccc(S(=O)(=O)N(C)C[C@H]2OCCCC[C@@H](C)Oc3ccc(NS(C)(=O)=O)cc3C(=O)N([C@@H](C)CO)C[C@H]2C)cc1,inactive,inactive,inactive
C[C@@H]1CN([C@H](C)CO)C(=O)c2cccc(NC(=O)NC3CCCCC3)c2O[C@H]1CN(C)S(C)(=O)=O,inactive,inactive,inactive
C=C1SC(Nc2c(C)cccc2C)=NC12CCCCC2,inactive,active,inactive
COc1nc2ccc(Br)cc2cc1[C@@H](c1ccccc1)[C@@](O)(CCN(C)C)c1cccc2ccccc12,inactive,inactive,inactive
C[C@@H]1CCCCO[C@@H](CN(C)C(=O)C2CCCCC2)[C@@H](C)CN([C@H](C)CO)C(=O)c2cc(NC(=O)c3ccccc3)ccc2O1,inactive,inactive,inactive
O=C(C1=C[C@H](c2ccc(C(F)(F)F)cc2)C[C@H](OCc2ccc(CO)cc2)O1)N1CCN(Cc2ccc3c(c2)OCO3)CC1,inactive,inactive,inactive
COc1ccc([Si](C)(C)[C@H]2[C@H](CCO)O[C@@]3(C(=O)N(Cc4ccccc4)c4ccc(N5C(=O)c6cccc7cccc5c67)cc43)[C@@H]2C)cc1,inactive,active,inactive
CN1C(=O)c2cc(NC(=O)c3cnccn3)ccc2OC[C@H]2O[C@H](CC(=O)NCC3CCCCC3)CC[C@H]21,inactive,inactive,inactive
CCCN(CCC)S(=O)(=O)c1ccc(C(=O)N(c2cccc(SC)c2)[C@H]2OC(=O)c3ccccc32)cc1,inactive,inactive,inactive
C[C@@H]1CN([C@@H](C)CO)S(=O)(=O)c2ccc(-c3cncnc3)cc2O[C@H]1CN(C)C(=O)c1cccc(F)c1,inactive,inactive,inactive
CN1CC(=O)NC1=O,inactive,inactive,inactive
CN(C)C(=O)C[C@H]1CC[C@@H]2[C@H](COc3ccc(NS(=O)(=O)c4cccc(F)c4)cc3C(=O)N2C)O1,inactive,inactive,inactive
C[C@@H]1CN([C@H](C)CO)C(=O)c2cc(C#CCN(C)C)cnc2O[C@H]1CN(C)Cc1ccc2c(c1)OCO2,inactive,inactive,inactive
C[C@H]1CN([C@@H](C)CO)C(=O)c2cc(NS(=O)(=O)c3cccs3)ccc2O[C@@H]1CN(C)S(=O)(=O)c1ccc(F)cc1,inactive,inactive,inactive
Cc1c(N)cncc1C(=O)O,inactive,inactive,inactive
COCC(=O)N1C[C@H](C)[C@@H](OC)CN(C)C(=O)c2ccc(NC(=O)c3ccc(F)cc3)cc2OC[C@H]1C,inactive,inactive,inactive
Cc1noc(C)c1NC(=O)Nc1ccc2c(c1)C(=O)N([C@@H](C)CO)C[C@@H](C)[C@@H](CN(C)C(=O)Nc1ccc3c(c1)OCO3)OCCCC[C@@H](C)O2,inactive,inactive,inactive
CC(C)CC#Cc1ccc2c(c1)O[C@H](CN(C)CC1CCOCC1)[C@H](C)CN([C@H](C)CO)S2(=O)=O,inactive,inactive,inactive
C[C@H]1CN([C@@H](C)CO)C(=O)c2cccc(NC(=O)c3ccc(-c4nccs4)cc3)c2O[C@@H]1CN(C)S(=O)(=O)c1ccc(Cl)cc1,inactive,inactive,inactive
Nc1nnc(CC(=O)O)[nH]1,inactive,inactive,inactive
C[C@@H]1CN([C@@H](C)CO)C(=O)CCCn2cc(nn2)CO[C@H]1CN(C)C(=O)Nc1ccc(N2CCN(C)CC2)cc1,inactive,inactive,inactive
CNC(=O)NCc1ccc2c(c1)OCO2,inactive,inactive,inactive
C[C@@H]1CN([C@@H](C)CO)C(=O)c2cccc(NS(=O)(=O)c3cn(C)cn3)c2O[C@H]1CN(C)S(=O)(=O)c1cccs1,inactive,inactive,inactive
C[C@@H]1CCCCO[C@H](CN(C)C(=O)Nc2cccc3ccccc23)[C@@H](C)CN([C@@H](C)CO)C(=O)c2cc(NS(=O)(=O)c3cn(C)cn3)ccc2O1,inactive,inactive,inactive
COc1cccc(S(=O)(=O)Nc2ccc3c(c2)[C@@H]2C[C@@H](CC(=O)NC4CCCCC4)O[C@H](CO)[C@@H]2O3)c1,inactive,inactive,inactive
C[C@H](CO)N1C[C@H](C)[C@H](CN(C)C(=O)C2CCCCC2)Oc2cc(C#C[C@@H](C)O)ccc2S1(=O)=O,inactive,inactive,inactive
CC1(C)OC(=O)C2(C(=O)O1)[C@@H](c1ccc(-c3ccc(Br)cc3)cc1)CC(=O)C[C@H]2c1ccccc1,inactive,inactive,inactive
CC(C)CC#Cc1ccc2c(c1)O[C@@H](CN(C)C(=O)Cc1cccnc1)[C@H](C)CN([C@@H](C)CO)S2(=O)=O,inactive,inactive,inactive
